Source: a collection of fitness landscapes (doi:10.1038/s41467-024-54723-y)
Whole data set: some 18,000 sequences, median “TetR repression strength (sort-seq, GFP reporter)” near 0.23, cut for the highest 2% near 0.68. The list shows a part of the results.

What follows are sequences tested against TetR (class B, Tn10) (UniProt P04483) (assay: TetR repression strength (sort-seq, GFP reporter) (relative to tetO2 = 1); higher = stronger repression). Settings: E. coli.
Procedure, shortened: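 Repression strength is the top bin index plus one minus the read-weighted mean bin, relative to the unaltered operator's value. A low-copy library in E. coli SIG10-MAX randomized eight operator positions between a constitutive promoter and sfGFP, with TetR expressed constitutively; cells grew 5 h at 37 °C in LB with 50 µg/mL chloramphenicol and 10^6 were FACS-sorted into 13 bins that were each Illumina-sequenced. Three independent transformations were averaged, keeping only members with ≥30 reads in all replicates and CV ≤0.5.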

Chain of UniProt P04483 (P04483 whole entry): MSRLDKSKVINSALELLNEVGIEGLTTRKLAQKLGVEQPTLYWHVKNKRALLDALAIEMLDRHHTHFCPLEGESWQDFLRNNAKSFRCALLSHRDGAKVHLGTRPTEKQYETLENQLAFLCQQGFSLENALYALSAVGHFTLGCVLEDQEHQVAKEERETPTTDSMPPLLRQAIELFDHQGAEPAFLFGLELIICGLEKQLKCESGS

Sequence | TetR repression strength
TCCCTTCAAGTTTAAGAGA | 0.128
TCCCGGAGAGTAGTGGAGA | 0.564
TCCCGTTAAGTCCGGGAGA | 0.0795
TCCCGACCAGTGGGTGAGA | 0.205
TCCCAACGAGTTGATGAGA | 0.274
TCCCGTCTAGTATGGGAGA | 0.253
TCCCACGCAGTGCGAGAGA | 0.341
TCCCGTTCAGTATAAGAGA | 0.319
TCCCCCCGAGTGGCTGAGA | 0.289
TCCCAGTTAGTCTGCGAGA | 0.162
TCCCAGCGAGTGCCAGAGA | 0.233
TCCCGGTCAGTGGTCGAGA | 0.633
TCCCAAGTAGTCCTCGAGA | 0.396
TCCCGCTAAGTAAGTGAGA | 0.00864
TCCCACTCAGTACGCGAGA | 0.36
TCCCATCAAGTTTTGGAGA | 0.171
TCCCGCGTAGTGGGCGAGA | 0.232
TCCCGTTCAGTTGGAGAGA | 0.361
TCCCAATAAGTGAAAGAGA | 0.688
TCCCGGCGAGTCGGGGAGA | 0.143
TCCCCCCTAGTGGTTGAGA | 0
TCCCATCGAGTGGTGGAGA | 0.204
TCCCGGCTAGTGGAAGAGA | 0.404
TCCCGCTCAGTGAGTGAGA | 0.375
TCCCAAGGAGTATAAGAGA | 0.288
TCCCCAGGAGTAACGGAGA | 0.158

Sequence | TetR repression strength
TCCCTATTAGTTATTGAGA | 0.444
TCCCGTGCAGTGACCGAGA | 0.709
TCCCCGAGAGTGGTCGAGA | 0.332
TCCCCTCCAGTTGGTGAGA | 0.0284
TCCCGGACAGTTGAGGAGA | 0.347
TCCCAGAAAGTGGCGGAGA | 0.316
TCCCGTGGAGTGTGGGAGA | 0.272
TCCCGGCAAGTCGTGGAGA | 0.402
TCCCACTCAGTGTGGGAGA | 0.44
TCCCTAGGAGTGAGTGAGA | 0.342
TCCCTACGAGTCGATGAGA | 0.219
TCCCGGTAAGTTGGAGAGA | 0.191
TCCCCTCTAGTGACCGAGA | 0.399
TCCCGTCTAGTCGGCGAGA | 0.00715
TCCCAAGGAGTGCGTGAGA | 0.349
TCCCCGGGAGTGGGTGAGA | 0.121
TCCCTGAGAGTAGGGGAGA | 0.375
TCCCAAAGAGTGAAGGAGA | 0
TCCCGAACAGTGAGGGAGA | 0.0319
TCCCGTCCAGTACGGGAGA | 0.425
TCCCGAATAGTTGAGGAGA | 0.329
TCCCAACGAGTTGGCGAGA | 0.176
TCCCGTGCAGTAGTGGAGA | 0.0415
TCCCTGCTAGTTACAGAGA | 0.348
TCCCGCCGAGTGACGGAGA | 0.386
TCCCGGTGAGTGACAGAGA | 0.442

Sequence | TetR repression strength
TCCCCTTTAGTTGGCGAGA | 0.364
TCCCCTGGAGTTGCCGAGA | 0.268
TCCCCTGAAGTAGCGGAGA | 0.15
TCCCGGTGAGTCTGCGAGA | 0.0299
TCCCCCACAGTGGATGAGA | 0.294
TCCCGCGGAGTTAGTGAGA | 0.16
TCCCTCGGAGTGACGGAGA | 0.111
TCCCATACAGTGCCGGAGA | 0.311
TCCCCTAAAGTCCTTGAGA | 0.469
TCCCCAAAAGTAAACGAGA | 0.578
TCCCATTTAGTTTCCGAGA | 0.506
TCCCTGGGAGTGTTCGAGA | 0.206
TCCCGGCAAGTCAGGGAGA | 0.32
TCCCAGAAAGTGGGTGAGA | 0.172
TCCCAGCAAGTGACAGAGA | 0.223
TCCCCTTTAGTCTGTGAGA | 0.247
TCCCACTCAGTCGTGGAGA | 0.254
TCCCGGCCAGTTGTTGAGA | 0.199
TCCCAGTAAGTGTACGAGA | 0.405
TCCCGCACAGTCAACGAGA | 0.236
TCCCACATAGTGGTAGAGA | 0.199
TCCCTGATAGTTACCGAGA | 0.104
TCCCAATCAGTTCGAGAGA | 0.198
TCCCGAACAGTACTGGAGA | 0.317
TCCCACTCAGTGGTGGAGA | 0.236
TCCCATTTAGTGTTGGAGA | 0.312

Sequence | TetR repression strength
TCCCTCCTAGTGCGGGAGA | 0.115
TCCCCAAGAGTGTGTGAGA | 0.249
TCCCAACAAGTGTCAGAGA | 0.341
TCCCTATGAGTGGTCGAGA | 0.321
TCCCATTTAGTGACAGAGA | 0.461
TCCCTGGTAGTCTCAGAGA | 0.0898
TCCCGTCGAGTGGCGGAGA | 0.193
TCCCAGCAAGTTGCGGAGA | 0.201
TCCCATCTAGTGCGTGAGA | 0.708
TCCCTAATAGTGCGGGAGA | 0.209
TCCCGTTCAGTCTATGAGA | 0.172
TCCCAAGGAGTTGAAGAGA | 0.259
TCCCTAGTAGTGCAAGAGA | 0.538
TCCCGTCCAGTCACTGAGA | 0.215
TCCCGGACAGTGGTGGAGA | 0.188
TCCCTGTAAGTACTGGAGA | 0.126
TCCCGAGGAGTTAGCGAGA | 0.463
TCCCTACGAGTGCTGGAGA | 0.388
TCCCGTAAAGTTGGCGAGA | 0.317
TCCCGGTGAGTCGAGGAGA | 0.272
TCCCAACGAGTTCGGGAGA | 0.277
TCCCTAACAGTGCCTGAGA | 0.128
TCCCTGGTAGTAATAGAGA | 0.259
TCCCCCAGAGTTGTGGAGA | 0.224
TCCCAATAAGTCAGAGAGA | 0.11
TCCCAGCGAGTTGTGGAGA | 0.174

Sequence | TetR repression strength
TCCCGGTGAGTACAGGAGA | 0.261
TCCCGGGGAGTACACGAGA | 0.107
TCCCGGAGAGTCGGGGAGA | 0.287
TCCCAGGGAGTGCCTGAGA | 0.22
TCCCTTCAAGTGTTAGAGA | 0.433
TCCCTACTAGTGTTTGAGA | 0.289
TCCCCACTAGTCGGCGAGA | 0.289
TCCCCTAAAGTTGTGGAGA | 0.0567
TCCCAGGAAGTGATTGAGA | 0.266
TCCCTAGCAGTTGGAGAGA | 0.471
TCCCGCTAAGTGCTAGAGA | 0.36
TCCCACACAGTGTAGGAGA | 0.274
TCCCGGTTAGTCGGAGAGA | 0.181
TCCCGTGGAGTGTATGAGA | 0.16
TCCCCTCTAGTAGCAGAGA | 0.259
TCCCTTTGAGTACGTGAGA | 0.0564
TCCCTGCGAGTTGAGGAGA | 0.254
TCCCTTATAGTTGTCGAGA | 0.0735
TCCCAACGAGTATGCGAGA | 0.421
TCCCAATGAGTGCTGGAGA | 0.352
TCCCAGGGAGTGTGGGAGA | 0.244
TCCCATTGAGTGTTTGAGA | 0.534
TCCCGCGGAGTGTTGGAGA | 0.281
TCCCTTGGAGTTCGAGAGA | 0.389
TCCCGAAAAGTTAGGGAGA | 0.145
TCCCTTGCAGTATGAGAGA | 0.157
